# Among all 220,000 compounds or so, about 16,000 (7.3%) were called active. Inconclusive means that the source gave no clear call. Such entries were picked first, then a sample of the others. The call rests on the fitted dose curve; in most records, active means well fitted inhibition curve with a large enough effect (not every such curve was filed as active); inconclusive means small, poorly fitted or top-dose-only effect, or another doubt; inactive means no such curve, though single readings can be large or run the other way. No potency is given beside an inconclusive call; the fits are too rough.
# Molecular target: Aldehyde dehydrogenase 1A1 (Homo sapiens) (UniProt P00352)
# Assay: qHTS Assay for Inhibitors of Aldehyde Dehydrogenase 1 (ALDH1A1)
# Conditions: Purified ALDH1A1, NADH fluorescence, propionaldehyde substrate; series mostly up to 75.3 µM
# Potency means the concentration at half of the fitted maximal effect; tags describe the fitted curve by direction and shape.
# UniProt P00352, sequence (P00352 whole entry, looked up): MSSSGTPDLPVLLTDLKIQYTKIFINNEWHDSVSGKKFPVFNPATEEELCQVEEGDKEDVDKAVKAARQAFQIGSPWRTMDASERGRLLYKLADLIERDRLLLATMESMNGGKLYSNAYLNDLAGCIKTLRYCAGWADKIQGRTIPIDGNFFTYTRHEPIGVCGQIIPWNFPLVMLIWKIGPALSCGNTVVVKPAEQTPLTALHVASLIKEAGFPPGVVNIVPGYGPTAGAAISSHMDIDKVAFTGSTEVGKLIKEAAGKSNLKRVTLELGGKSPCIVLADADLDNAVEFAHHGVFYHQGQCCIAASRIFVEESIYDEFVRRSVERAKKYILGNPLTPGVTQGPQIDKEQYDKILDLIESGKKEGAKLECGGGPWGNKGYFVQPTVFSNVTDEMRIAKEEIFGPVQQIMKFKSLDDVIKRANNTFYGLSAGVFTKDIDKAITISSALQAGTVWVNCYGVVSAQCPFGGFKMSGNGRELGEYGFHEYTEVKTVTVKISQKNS
row,Structure (SMILES),Potency
1,COCc1cccc(N2C(=O)CC(C3C=C(C)C4C(=O)N(c5cccc(COC)c5)C(=O)C4C3)C2=O)c1 (configuration not stated),inactive
2,CC(C)(C)c1cc2cccnc2n1Cc1cccc(Cl)c1,"inconclusive [inhibitor, single point]"
3,Cc1cc(=O)n2nc(N3CCCC(C(=O)NC(C)c4ccccc4)C3)sc2n1 (configuration not stated),"inconclusive [inhibitor, partial curve, poor fit]"
4,CCn1c(=O)cc(OCC(=O)N(C)C2CCCCC2)c2ccccc21,active: 20 µM
5,COc1cccc(NC(=O)CSc2nnc(-c3cccc(OC(C)C)c3)n2N)c1,"inconclusive [inhibitor, partial curve]"
6,O=C(c1cc2c(s1)CCCC2)N1CCN(Cc2ccc3c(c2)OCO3)CC1,active: 14.1 µM
7,CC1=C(C(=O)Nc2ccccn2)C(c2cn(C)nc2C)C2=C(CCCC2=O)N1 (configuration not stated),"inconclusive [inhibitor, partial curve]"
8,Cc1noc(C)c1C(=O)N1CCC2(CC1)CCN(c1cccc(-c3ccccc3)c1)CC2,"inconclusive [inhibitor, partial curve]"
9,CN(C)S(=O)(=O)c1ccc2c(c1)nc(CCC(=O)Nc1ccc3c(c1)OCO3)n2C,active: 5.01 µM
10,O=C(CN1C(=O)C2CC=CCC2C1=O)NCC1COc2ccccc2O1 (configuration not stated),"inconclusive [inhibitor, single point]"
11,O=C(N/N=C/c1c(O)n(-c2ccccc2Cl)c(=O)c2ccccc12)C1COc2ccccc2O1 (configuration not stated),"inconclusive [inhibitor, single point]"
12,CCOc1cc(NC(=O)c2ccccn2)c(OCC)cc1NC(=O)c1ccc(OC)cc1,inactive
13,CCOC(=O)c1c(-c2ccc(F)cc2)csc1/N=C/N(C)C,inactive
14,O=C(NCCCO)c1ccc2nc(-c3ccco3)c(-c3ccco3)nc2c1,"inconclusive [inhibitor, partial curve]"
15,Cc1ccccc1C(=O)NC(=S)Nc1ccccc1[N+](=O)[O-],"inconclusive [inhibitor, single point]"
16,CCCOc1ccc(C2C(C(=O)c3ccco3)=C(O)C(=O)N2CCN2CCOCC2)cc1OC (configuration not stated),"inconclusive [inhibitor, single point]"
17,CCC(C)NC(=O)c1ccccc1NC(=O)/C(=C/c1ccc(OC)cc1)c1ccccc1 (configuration not stated),"inconclusive [inhibitor, single point]"
18,CCOc1ccc(C(O)C(CN2CCOCC2)c2ccccc2)cc1 (configuration not stated),"inconclusive [inhibitor, partial curve]"
19,CCOc1cc(S(=O)(=O)NCc2ccncc2)ccc1Cl,inactive
20,NC(N)=NS(=O)(=O)c1ccc(NC(=S)NC(=O)/C=C/c2ccco2)cc1,"inconclusive [inhibitor, single point]"
21,COc1ccc(OCc2nnc(SCC(=O)N3CCCc4ccccc43)n2-c2ccc(C)cc2)cc1,"inconclusive [inhibitor, single point]"
22,CCn1cc(/C=N/NS(=O)(=O)c2ccc(OC)cc2)c(C)n1,"inconclusive [inhibitor, single point]"
23,COCCCNC(=O)c1c(N)n(/N=C/c2cccs2)c2nc3ccccc3nc12,"inconclusive [inhibitor, partial curve]"
24,C=CCSc1nnc(NC(=O)Cc2ccc(OC)c(OC)c2)s1,"inconclusive [inhibitor, partial curve]"

row,Structure (SMILES),Potency
1,CCC(CC)C(=O)c1c[nH]c(C(=O)NCC2CCCO2)c1 (configuration not stated),inactive
2,S=C(Nc1ccccc1)N1CCN(C(=S)Nc2ccccc2)CC1,inactive
3,COc1cc(/C=N/NC(=S)Nc2cccc(S(=O)(=O)N(C)C)c2)cc(OC)c1O,active: 22.4 µM
4,Cc1nn(C(C)(C)C)c(N)c1-c1ccccc1,inactive
5,c1ccc(-c2oc3ncnc(NCCCN4CCOCC4)c3c2-c2ccccc2)cc1,"inconclusive [inhibitor, partial curve]"
6,CCNc1ncc2nc(-c3cccc(C#N)c3)c(=O)n(CCC#N)c2n1,"inconclusive [inhibitor, full curve]"
7,CC(/C=C/c1ccccc1)=N\NC(=O)c1ccc(Br)cc1,"inconclusive [inhibitor, single point]"
8,CCOC(=O)CCCSc1nc(-c2ccc3c(c2)OCO3)cc(C(F)(F)F)c1C#N,"inconclusive [inhibitor, partial curve]"
9,COc1cc(-c2nc(-c3ccccc3)c(-c3cccs3)[nH]2)cc(OC)c1OC,"inconclusive [inhibitor, full curve]"
10,CN(C)/C=N/c1c(C#N)cnn1-c1ncnc2sc(-c3ccccc3)cc12,"inconclusive [inhibitor, partial curve]"
11,COc1ccc(CC(=O)NNC(=S)Nc2ccc(Br)cc2)cc1,active: 17.8 µM
12,CCn1c(SCC(=O)N/N=C/C=C/c2ccco2)nc2ccccc21,active: 12.6 µM
13,CCS(=O)(=O)Nc1cccc(C2=NN(S(C)(=O)=O)C(c3ccccc3)C2)c1 (configuration not stated),"inconclusive [inhibitor, partial curve]"
14,COc1ccc(C2NC(C(=O)O)Cc3c2[nH]c2ccccc32)cc1OC (configuration not stated),"inconclusive [inhibitor, partial curve]"
15,O=C(CC1S/C(=N\S(=O)(=O)c2ccc(F)cc2)N(c2ccccc2)C1=O)Nc1ccccc1 (configuration not stated),"inconclusive [inhibitor, partial curve]"
16,CCOC(=O)c1cc(-c2ccccc2)n(CC(=O)NC(C)(C)C)c1C,"inconclusive [inhibitor, single point]"
17,CCN(CC)S(=O)(=O)c1ccc(Cl)c(C(=O)Nc2ccc(Cl)cc2[N+](=O)[O-])c1,"inconclusive [inhibitor, partial curve]"
18,O=C(CCN1C(=O)c2ccccc2S1(=O)=O)N1CCN(c2ccccc2)CC1,"inconclusive [inhibitor, full curve]"
19,CCOc1ccccc1N1C(=O)c2ccc(C(=O)Nc3cccnc3)cc2C1=O,inactive
20,C=CCSc1nc2sc(C)c(C)c2c(=O)n1CC=C,"inconclusive [inhibitor, single point]"
21,O=C(CCc1nnc(-c2ccccc2)o1)NCc1c(F)cccc1F,inactive
22,O=C(c1ccco1)N1CCN(C(=O)c2cccc3c2C(=O)N(C2CCCCC2)C3)CC1,active: 10 µM
23,CCN1CCN(C(=S)NCC2CCCO2)CC1 (configuration not stated),active: 0.501 µM
24,Cc1nc(-n2nnc3ccccc32)c2c3c(sc2n1)CCCC3,"inconclusive [inhibitor, partial curve]"

row,Structure (SMILES),Potency
1,CCN=c1scc(C)n1/N=C/c1cc(Br)c(O)c(Br)c1,"inconclusive [inhibitor, single point]"
2,CCC1c2ccc(C)n2CCN1C(=O)Nc1ccccc1C(=O)OC (configuration not stated),"inconclusive [inhibitor, partial curve]"
3,CCc1cc2c(N[C@@H](C)C(=O)O)ncnc2s1,"inconclusive [inhibitor, single point]"
4,O=C(NCCSCc1c(F)cccc1Cl)c1ccc(CN2CCOCC2)cc1,inactive
5,Cc1nc2ccc(S(=O)(=O)NCC(=O)NCc3ccc4c(c3)OCO4)cc2s1,"inconclusive [inhibitor, partial curve]"
6,CCN(CC(=O)NCc1ccc(F)cc1)CC(=O)Nc1ccc(S(=O)(=O)N2CCCC2)cc1,active: 11.2 µM
7,Cc1cccc(C)c1NC(=S)N(Cc1cccnc1)Cc1ccccc1Cl,"inconclusive [inhibitor, single point]"
8,c1ccc(Cc2nnc3sc(-c4ccc5c(c4)OCCO5)nn23)cc1,"inconclusive [inhibitor, partial curve]"
9,O=[N+]([O-])c1cc(Cl)ccc1N1CCCCC1,inactive
10,COc1cc(-c2nnc3sc(Cc4ccccc4)nn23)cc(OC)c1OC,active: 22.4 µM
11,Cc1cccc(Nc2nnc(SCC3CCCCO3)s2)c1 (configuration not stated),"inconclusive [inhibitor, single point]"
12,Cc1ccc(/C=N/NC(=O)CNC(=O)COc2ccccc2)o1,inactive
13,COc1ccc(S(=O)(=O)Nc2ccc(N3CCOCC3)cc2)cc1Br,"inconclusive [inhibitor, single point]"
14,CCOC(=O)/C(C#N)=C\C=C1C=CN(C)C=C1,inactive
15,Cc1ccccc1C(=O)Nc1ccccc1C(=O)N/N=C\c1ccco1,"inconclusive [inhibitor, single point]"
16,CCC(C)(C)n1nnnc1C(c1cc2cc(OC)ccc2[nH]c1=O)N1CCc2ccccc21 (configuration not stated),"inconclusive [inhibitor, single point]"
17,Cc1cc(C)cc(NC(=S)NN)c1,inactive
18,COc1cc(C=O)ccc1OCc1ccccc1Br,"inconclusive [inhibitor, single point]"
19,COCCCNC(=O)c1cc2c(-c3ccc(Cl)cc3)nn(C)c2s1,"inconclusive [inhibitor, partial curve]"
20,CCOC(=O)NCc1ccc2c(c1)OCO2,inactive
21,COc1ccc(OCC(=O)N2CCN(C(=O)c3cccs3)CC2)cc1,"inconclusive [inhibitor, single point]"
22,CCOC(=O)C1CCN(Cc2oc(CO)cc(=O)c2O)CC1,inactive
23,CCOc1ccccc1NC(=O)/C=C/c1ccccc1[N+](=O)[O-],inactive
24,O=C(CSc1ccc(-c2ccco2)nn1)N1CCCCCC1,"inconclusive [inhibitor, single point]"

# Source: PubChem BioAssay AID1030 (National Center for Advancing Translational Sciences (NCATS), 2008)
